# About 17,000 (4.7%) of roughly 360,000 compounds were called active. Inconclusive means that the source gave no clear call. Such entries were picked first, then a sample of the others. Cut-off read from the data, not from the text of the source: active = activity change below about -50%; inconclusive = mostly about -30% to -49%; inactive = weaker than that.
# Test: qHTS for Inhibitors of Inflammasome Signaling: IL-1-beta AlphaLISA Primary Screen
# Conditions: THP-1 LPS/ATP IL-1B secretion, 16 h; at 57.5 µM, active compounds read low
# Summary of the method: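 THP-1 cells pretreated 1 hr with compounds (up to 57.5 uM final), then stimulated with LPS (250 ng/mL final) plus ATP (1.25 mM final); secreted IL-1B measured by AlphaLISA after 16 hr, decreased signal indicating inhibition.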
# % is set by controls: 0 for no effect and ±100 for the full control effect.
row,SMILES,activity change
1,CCN1C(=O)/C(=C/N(C(C)=O)c2ccccc2)N(c2ccccc2)C1=S,inconclusive: -31.6%
2,Clc1cccc(Cl)c1Cn1cnc(=NCc2ccco2)c2[nH]cnc21,inconclusive: -34.5%
3,CCC(C)C(=O)Nc1nc2ccc(S(C)(=O)=O)cc2s1 (stereo unspecified),inconclusive: -42.9%
4,Cc1oc(-c2cccs2)nc1CN1CC[C@@](O)(c2ccccc2)[C@H]2CCCC[C@@H]21,active: -73.9%
5,CCCOC(=O)C1=C(C)NC(=O)NC1c1ccc(Br)s1 (stereo unspecified),inconclusive: -32%
6,Oc1ccc(Cl)cc1CNc1ccc(Br)cn1,inconclusive: -45.3%
7,COc1nnc(-c2ccc(N3CCCCC3)c(NC(C)=O)c2)c2ccccc12,inconclusive: -35.1%
8,O=C(Nc1ccc(Oc2cccnc2)cc1)c1ccc([N+](=O)[O-])cc1,inconclusive: -31.3%
9,O=C(Nc1cccc(Cl)c1)c1ccc(S(=O)(=O)NCC2CCCO2)cc1 (stereo unspecified),inconclusive: -45.3%
10,C=C(C)COc1ccc(-c2[nH]ncc2-c2ccc(OC)cc2)c(O)c1,inactive: -6.97%
11,Cc1ccc(C)c2[nH]c(=O)c(CN(Cc3nnnn3C3CCCCC3)CC3CCCO3)cc12 (stereo unspecified),inconclusive: -40.4%
12,Cn1c(CC(=O)Nc2ccccc2Cl)nnc1SCC(=O)NC1CCCCC1,inactive: -5.15%
13,Oc1[nH]c2ccccc2c1N=NC(=S)NCCc1ccccc1,inactive: -1.77%
14,O=C(NCCCN1CCOCC1)C(=O)N/N=C/c1c2ccccc2cc2ccccc12,inactive: 47%
15,CC(C(=O)OCC(=O)N1CCCCC1)N1C(=O)c2ccccc2C1=O (stereo unspecified),inactive: 0%
16,Cc1cc(Cl)ccc1NC(=O)CN1C(=O)C(=O)N(C2CCCC2)C1=O,inactive: -8.58%
17,Cc1ccc(C(=O)Nc2cccc(O)c2)cc1S(=O)(=O)N1CCCCCC1,active: -57.4%
18,O=C(NCC(c1ccco1)N1CCCCC1)c1ccc(COc2ccc(Cl)cc2)cc1 (stereo unspecified),active: -75.5%
19,CNC(=O)/C(C#N)=C/c1cccc(Oc2ccccc2)c1,active: -102%
20,Cn1c(N)c(C(=O)COC(=O)CC(NC(N)=O)c2ccc(Cl)cc2)c(=O)n(C)c1=O (stereo unspecified),inactive: 18.2%
21,COc1ccc(S(=O)(=O)NCCSc2ccc(Cl)cc2)cc1OC,inconclusive: -43.9%
22,N#C/C(C(=O)Nc1ccc(Cl)cc1)=C(/S)Nc1ccccc1,inconclusive: -30.3%

row,SMILES,activity change
1,CCOC(=O)N1CCN(c2cc(N3CCN(CC)CC3)c(F)cc2[N+](=O)[O-])CC1C (stereo unspecified),inconclusive: -44.2%
2,Cc1ccccc1S(=O)(=O)N1C[C@H]2[C@H]3C(=O)N(C4CCCCC4)C(=O)[C@H]3CC(=O)[C@H]2[C@@H]1c1ccc(Cl)cc1,inconclusive: -38.9%
3,Cc1cccc2sc(NC(=O)CCn3cccc3)nc12,active: -51.9%
4,COC(=O)CSc1nnc2n(C3CCCCC3)c(=O)c3c4c(sc3n12)CCCC4,inconclusive: -37.4%
5,CCOc1ccc(NCc2cccn2-c2nnc(N3CCC(C(=O)NCCCN4CCCCC4C)CC3)s2)cc1 (stereo unspecified),inconclusive: -37.9%
6,CCc1cccc2c(C(=O)CCl)c[nH]c12,active: -94.7%
7,OC(c1ccc(Cl)c(Cl)c1)c1ncc(-c2ccc(C(F)(F)F)cc2)[nH]1 (stereo unspecified),inconclusive: -49.5%
8,COc1ccccc1NS(=O)(=O)c1cc(C(=O)N2CC(C)CC(C)C2)ccc1C (stereo unspecified),inactive: 6.55%
9,O=C(C1CCCCC1)N1C[C@@H](n2cc(-c3ccc(F)cc3)nn2)[C@H](O)C[C@@H]1c1ccc(Cl)cc1,inconclusive: -31.7%
10,Cc1cc2nc3ccc(N(C)C)cc3nc2cc1N,inconclusive: -36.1%
11,Cc1cccc(CS(=O)(=O)Cc2ccc(C(=O)NC3CCCCCC3)o2)c1,inactive: -5.62%
12,NC(=O)c1nsc(C(=O)N(Cc2cccnc2)C(C(=O)NCc2ccc(F)cc2)c2ccc(F)cc2)c1N (stereo unspecified),active: -55.4%
13,CC(C)C[C@H]1CNC(=S)N1C[C@H]1CCCN1C[C@H](CC(C)C)N1C[C@H](Cc2ccc(O)cc2)N(CC2CCCCCC2)C1=S,active: -59%
14,O=C(N/N=C/c1cn(-c2ccccc2)nc1-c1cccnc1)c1ccccc1,inconclusive: -41.6%
15,CN(c1ccc(C(=O)Nc2ccc3c(c2)OCO3)cc1)S(C)(=O)=O,inconclusive: -30.8%
16,Cc1cc(NC(NC(=O)c2ccco2)(C(F)(F)F)C(F)(F)F)no1,inconclusive: -31.4%
17,CCC(C)NC(=O)CSc1c2c(nc3ccccc13)CCCC2 (stereo unspecified),inconclusive: -30%
18,Nc1nc(N)c(N=O)c(Nc2cccc(Cl)c2)n1,inconclusive: -43.2%
19,O=C(NC1CCCCC1)c1cccc(Cn2cc(Cl)cn2)c1,inconclusive: -30.8%
20,COc1ccccc1C1c2[nH]c3ccccc3c2CCN1Cc1cnc(C)s1 (stereo unspecified),inactive: 5.68%
21,CC(=O)Nc1ccc(NC(=O)c2ccc(-n3c(C)ccc3C)cc2)cc1,active: -67.5%
22,O=C(NC1CCCCCC1)c1ccc(Br)o1,inactive: 11.7%

row,SMILES,activity change
1,CCN(CC)S(=O)(=O)c1ccc(OC)c(NC(=O)c2cccc(C)c2[N+](=O)[O-])c1,inconclusive: -41.6%
2,COc1ccc(CCC(=O)Nc2ccc(S(=O)(=O)N3CCOCC3)cc2)cc1,inactive: 18.8%
3,Nc1c(Cl)cc(C2=NCCn3nc4cc(C(F)(F)F)ccc4c32)cc1Cl,inconclusive: -40.3%
4,CC(C)(C)c1cc(CP(=O)(c2ccccc2)c2ccccc2)cc(C(C)(C)C)c1O,inconclusive: -48%
5,COc1cccc(C(=O)Nc2ccc(N3CCN(Cc4ccccc4)CC3)cc2)c1,inconclusive: -35.5%
6,Cc1[nH]c2ccc(F)cc2c1CCN(Cc1cccnc1)C(=S)Nc1cccc(F)c1,inactive: -14.5%
7,CC(OC(=O)c1ccc(F)cc1)C(=O)Nc1nc(-c2cccc([N+](=O)[O-])c2)cs1 (stereo unspecified),inconclusive: -47.6%
8,CC(C)C(c1nnnn1Cc1ccco1)N1CCN(c2nc3ccccc3s2)CC1 (stereo unspecified),inconclusive: -37.1%
9,CC(C)CN1CCC(C(=O)NC(c2ccc(F)cc2)c2ccc3ccccc3n2)CC1 (stereo unspecified),inconclusive: -37.6%
10,CCCCCC(=O)N1CCCC(c2nc(-c3ccc(OC)cc3)no2)C1 (stereo unspecified),inconclusive: -38.3%
11,Cc1ccc(-c2nc3cnccn3c2Nc2c(C)cccc2C)o1,inactive: 13.4%
12,C#CC(=O)N(c1cccc(OC)c1)C(C(=O)NC1CCCC1)c1cccs1 (stereo unspecified),active: -102%
13,COc1cccc(-c2ccc3c(N)c(C(=O)NC4CC4)sc3n2)c1,inconclusive: -42.6%
14,c1cc2c(cc1C1CCCCC1)c1c3n2CCCNC3CCC1 (stereo unspecified),active: -83.4%
15,FC(F)(F)c1ccc(NCc2ccccn2)nc1,inconclusive: -35.9%
16,Nc1nc(SCc2ccc([N+](=O)[O-])cc2)nc2nc3c(cc12)CCCC3,inactive: -5.16%
17,CCOC(=O)c1c(S(=O)(=O)NCC(=O)N2CCN(c3ccccc3)CC2)c(C)n(C)c1C,inconclusive: -40.4%
18,COc1ccc(NC(C)C(=O)N2CCN(Cc3ccccc3)CC2)cc1 (stereo unspecified),inconclusive: -31.7%
19,O=C(NCCC1=CCCCC1)c1ccc2c(c1)N(Cc1ccccc1)C(=O)CS2,inconclusive: -39%
20,FC(F)(F)c1cc(CO[C@@H]2CCCN[C@@H]2c2ccccc2)cc(C(F)(F)F)c1,inconclusive: -45.7%
21,CC(=O)N1N=C(c2ccncc2)OC1(Cc1ccccc1)Cc1ccccc1,inconclusive: -39.3%
22,Cc1ccc(NC(=O)COC(=O)c2ccc(CN3CCCC3=O)cc2)cc1C,inactive: 12.7%

row,SMILES,activity change
1,CCn1cc(C(=O)O)c(=O)c2cnc(N3CCN(C(=S)NC(=O)c4ccc(Cl)cc4)CC3)nc21,inconclusive: -45.6%
2,COc1cccc(Cn2c(=O)c3ccccc3n3nc(C)cc23)c1,inactive: -8.44%
3,CCN(C)C1CN(Cc2cn(Cc3cc(C)cc(C)c3)nn2)S(=O)(=O)C1 (stereo unspecified),active: -52%
4,Cn1c(N)c(C(=O)CSc2nc(C3CC3)n(-c3ccccc3)n2)c(=O)n(C)c1=O,inactive: 17%
5,O=C(CSc1nnc(COc2ccccc2)n1Cc1ccco1)NCc1ccco1,inactive: 0%
6,CCN(CC(=O)Nc1ccc([N+](=O)[O-])cc1OC)c1ccccc1,inconclusive: -45.5%
7,Cc1ccc(CC2(C)C(=O)Nc3c(Cl)ccc(Cl)c32)cc1 (stereo unspecified),inactive: 53.1%
8,CCN(CC)c1ccc2ccc(=O)oc2c1,inactive: 51.1%
9,CC(C)OCc1ccc(C(=O)N2CCN(S(=O)(=O)c3ccc(Br)s3)CC2)cc1,inconclusive: -43.4%
10,COC(=O)N/N=C/c1ccc(-c2cc(Cl)cc(Cl)c2)o1,inconclusive: -42.2%
11,CN(C)C(=O)Nc1ccccc1CC[N+](=O)[O-],active: -64.8%
12,COc1ccc(CCNC(=O)Cc2ccsc2)cc1,inactive: 0%
13,COc1ccc(-c2noc(CCC(=O)NCC3CCN(Cc4cccc(C)c4)CC3)n2)cc1,active: -71.9%
14,CCc1ccccc1OCC(=O)Nc1cccc(S(=O)(=O)NC2=NCCCCC2)c1,inconclusive: -47.7%
15,O=C(C[n+]1cnn(CC(=O)c2ccc(Cl)cc2Cl)c1)c1ccc([N+](=O)[O-])cc1,active: -70.9%
16,O=C(Nc1ccc(S(=O)(=O)Nc2ccc(F)cc2)cc1)c1ccc(CN2CCOCC2)cc1,inconclusive: -45.1%
17,Cn1cnc([N+](=O)[O-])c1S(=O)(=O)Oc1ccccc1,active: -93.8%
18,CC(=O)N1CC(C)c2scc(C)[n+]2-c2ccccc21 (stereo unspecified),active: -71.4%
19,Cn1c(N2CCN(c3ccccn3)CC2)nc2c1c(=O)n(Cc1ccc(Cl)cc1)c(=O)n2C,inactive: -6.17%
20,O=C(Nc1ccccc1)Nc1ccc2ccccc2n1,inconclusive: -38.3%
